The source of these data is patent US20040091973A1, “Process for selecting anti-angiognesis antibody fragments, anti-angiogenesis antibody fragments thus obtained and their use” (published 2004).

The koff is the rate constant with which the complex falls apart. A word on the kon: it is the rate constant with which the complex forms.

This assay has as its target recombinant domain ED-B of Fibronectin (Homo sapiens (Human), UniProt P02751). The experiment in a line: surface plasmon resonance, BIAcore, monomer fraction of the scFv. How it is done:
The kinetic coefficients concerning association and dissociation of antibody fragments are determined by plasma surface resonance with BIAcore 1000 (Pharmacia) following known protocols. Few clones which were positive to the ELISA test are chosen for the measurements. The measurements are carried out with the monomer fraction of antibody fragments scFvs as described in relevant documents, using chips covered both with ED-B and with 7B89.
Background: SPR reads the build-up and loss of mass on a sensor chip optically.

B1: monoclonal scFv antibody ME-4C (scFv)
scFv: [about 100 residues not written out]QKSAPFDYWGQGTLVTVSRGGGGSGGGGSGGGGSSELTQDPAVSVALGQTVRITCQGDSLRSYYASWYQQKPGQAPVLVIYGKNNRPSGIPDRFSGSSSGNTASLTITGAQAEDEADYYCNSSAPVSNRVVFGGGTKLTVLG
Regarding B1, the koff came to 0.006 s⁻¹ and the on-rate (kon) is 60000 M⁻¹ s⁻¹.
